Results on 88 sequences are retold here after the supplement of paper PMC11417369.

This is one part of the list.

This experiment relates to PF3D7_0420300 AP2 domain 1 (GST-tagged). In words: gcPBM binding intensity (ln(normalized median fluorescence intensity)); higher = stronger DNA binding. In short, it runs like this:
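The binding buffer was 1× PBS containing 1% milk, 0.2 mg/ml BSA, 0.5% salmon testes DNA and 0.03% Triton X-100. In it, GST-tagged P. falciparum DNA-binding domains expressed in E. coli were applied for 1 h to an Agilent 4 × 180k array of primer-extended double-stranded 36-bp intergenic genomic probes plus negative controls. Binding intensity, read with Alexa488 anti-GST antibody and a 488 nm scan, is the highest Masliner-normalised natural-log median intensity across replicate spots of either probe orientation.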
Consider “ACATACGAAAATTGGAAGGATAGATAAAAAGAAAAT [CACACA_negctrl_site51]”, for which the “gcPBM binding intensity (ln)” value was found to be 9.51.

For the sequence “ATATAAAAAAGAGGGAGTACTTGTAACAAAATAATA [XGTACX_site8679]”, the “gcPBM binding intensity (ln)” value was 9.55. “GTACAGATGTAGTATGCATGTAATTATATATAAATT [TGCATGCA_site292]”: the “gcPBM binding intensity (ln)” value turned out to be 9.4. The value for “ACGTAGTAGGTATTATGTACATATTTATAAGTATAA [XGTACX_site7336]” was 9.16; that for “ACATGTTCATAATTTTGTACATATTTTTATGAACAT [XGTACX_site3976]” was 9.18.

In the case of “TATATAAATGTATACACACACATATAAATATAAATA [CACACA_site6751]”, the “gcPBM binding intensity (ln)” value turned out to be 9.71. “ATTCTAATTACATATACACACAAAGGTTCATAACAA [CACACA_site3076]”: the “gcPBM binding intensity (ln)” value came to 9.42. As to “TTCCCATGTAATATTAAACACACACCCATATAACAC [CACACA_site7905]”, the “gcPBM binding intensity (ln)” value is 9.76.

For “TAACTACTAGAAAAAACACACAAAAAGTAAATATAT [CACACA_site2740]”, the “gcPBM binding intensity (ln)” value is 9.82.

With “TGATTTTTTTTTTTTTTTTTTTTTTTTTTAGTTTGC [CACACA_negctrl_site1057]”, the “gcPBM binding intensity (ln)” value came out at 8.77. In the case of “TGTTTAACATTTATATGTACATATATTCACATATTA [XGTACX_site342]”, the “gcPBM binding intensity (ln)” value amounted to 9.29. Take “TAAAATATAAGACACACACACATATATTTATATATC [CACACA_site6248]”: the “gcPBM binding intensity (ln)” value worked out at 10.1. Then “TACCAAATCACCCCTTGTACCCATTTTAAAATTTTC [XGTACX_site396]”, with 9.47; and “ATAAACAGATCATATACATGCATATATGTAGAATAA [TGCATGCA_site157]”, with 9.34. The value for “TCCATTCTATTTTTTACACACGTATGTAAATATTAT [CACACA_site2686]” was 9.55. The value for “AGAATATATATAATAGTGCAATGTACAATGAACAAA [GTGCAC_site9577]” was 9.38. On to “ACGAATTAAATGGATTAATATATATATGTATATTTA [CACACA_negctrl_site1512]”, for which the “gcPBM binding intensity (ln)” value stood at 9.1. The value for “CGCAACACTATTTGGGTGCTCTTCAAAAAAAAAAAA [GTGCAC_site9598]” was 8.56; that for “TTAAATACTTTTCGAAGTACATTATATATATAATAT [XGTACX_site7530]” was 9.03; that for “ATTTGCTTTTATTTTACACACTTGCTCCTGTTGTAC [CACACA_site1088]” was 10. In the case of “AAAAAAAAATATATTGCACACCTCTCAATAAAAAAA [CACACA_site172]”, the “gcPBM binding intensity (ln)” value worked out at 9.32.

On to “AATACATAAATATTTTGTACATATTATATAAAATAT [XGTACX_site1627]”, for which the “gcPBM binding intensity (ln)” value came to 9.17.

As for “ATAAATGAAGATAAATTAAAAAAAAAAAAAAAAAAA [CACACA_negctrl_site992]”, the “gcPBM binding intensity (ln)” value was 8.24. Consider “ATAACATACATAACAACACACAATATTTATATGTAT [CACACA_site210]”, for which the “gcPBM binding intensity (ln)” value worked out at 9.71.

On to “GAATGTATTCATAAATGTACTTATAATATTATAATA [XGTACX_site3466]”, for which the “gcPBM binding intensity (ln)” value turned out to be 9.09.

As to “CGACTTTTAAAATATACACACATATATATATATATA [CACACA_site825]”, the “gcPBM binding intensity (ln)” value was 9.43.

As to “CTTGTACCTAGAAATACACACAATTATATAACTTAT [CACACA_site2838]”, the “gcPBM binding intensity (ln)” value was found to be 9.47.

For the sequence “CCACATGAGATGATTACACACATATAAATATTTACA [CACACA_site6222]”, the “gcPBM binding intensity (ln)” value amounted to 9.48. The value for “TATAAGAAAATAATGTGTACTAAATAATAAATGCAT [XGTACX_site1204]” was 9.54; that for “ACTTTTTAATAATAATAATTATATATATATATATAT [TGCATGCA_negctrl_site459]” was 9.23. Turning to “ATATATATTTAATTTACACACAAAAAAAATTGTTGG [CACACA_site961]”, the “gcPBM binding intensity (ln)” value was 9.49. Then “TATAAACAGACGAAAACACACATATGTAAATATATA [CACACA_site4428]”, with 9.6; and “ATAAAAATAATATCATGTACATATGTGTATTGTATT [XGTACX_site1768]”, with 9.29. Take “TACAAAAAGTTATACACACACGTACCTATAAATAGA [CACACA_site6571]”: the “gcPBM binding intensity (ln)” value was determined as 9.67. As to “TATTTCTTTTGGTTGGTGCATAAAATAATACAATAT [GTGCAC_site9916]”, the “gcPBM binding intensity (ln)” value worked out at 9.28. The value for “CAGACCTCTTTGTCATGTACATAAAAAAATAAAGAA [XGTACX_site7887]” was 9.07; that for “TTATCCTATACAAGGGAAAAATAAAATAAAATAAAT [TGCATGCA_negctrl_site272]” was 9.19; that for “TAAAAAATATTATATACACACAGTATAAAAAAAAAT [CACACA_site4012]” was 9.53. For the sequence ATTGATTATTTTCTAGTGCATAAAATAATTTTTTTT, the “gcPBM binding intensity (ln)” value turned out to be 9.13. Regarding “ATATACATATTATAATGTACATATTTTAATAACCTT [XGTACX_site7617]”, the “gcPBM binding intensity (ln)” value worked out at 9.2.

Turning to “AGTGTCATATAAAATTGTACTTTTTTTTTTTTCTTT [XGTACX_site5651]”, the “gcPBM binding intensity (ln)” value came out at 9.4.

As to “AAATGTTGAAAAATATGTACATATTATATATATTAT [XGTACX_site1165]”, the “gcPBM binding intensity (ln)” value stood at 9.23. As to “TAAGAAAGACAAAAAAAATGAAAAGAAAAAAAATGA [CACACA_negctrl_site1469]”, the “gcPBM binding intensity (ln)” value was determined as 9.32. For the sequence “AATATAAGCAAATACACACACACATATATATATATA [CACACA_site3805]”, the “gcPBM binding intensity (ln)” value stood at 10. The value for “ATTTAGAAAAAATATACACACAGCCTAAACATGCAT [CACACA_site4067]” was 9.64. In the case of “TATTTATTTGTTTAAGGTACAGAACAAATTTTTATT [XGTACX_site7414]”, the “gcPBM binding intensity (ln)” value was determined as 8.97. In the case of “AAATGTTCTTAAAAATGAATAATATATATATATATA [CACACA_negctrl_site796]”, the “gcPBM binding intensity (ln)” value turned out to be 8.94.

On to “CATAAATACATACATACACACATATATATATATATA [CACACA_site2106]”, for which the “gcPBM binding intensity (ln)” value is 9.5. For the sequence “ATATTTATTATTATATGTACGTAACATCTTTATAAA [XGTACX_site7016]”, the “gcPBM binding intensity (ln)” value is 9.22. Then “ATTCTATTATAATATTCACACACTAACGTAAATCAT [CACACA_site2750]”, with 9.55; and “TAATGACTGAAAAATTGTACATATGTATATATGTAT [XGTACX_site2415]”, with 9.18; and “TATACATACATACATACACACACACCGATATATATA [CACACA_site7896]”, with 10.1.

Take “ATAATTTTCCATATTTGTACATATTTTTTTCCCTTG [XGTACX_site8146]”: the “gcPBM binding intensity (ln)” value is 9.35.

With “AATATAAATAAAAACACACACAATGGTACAGATATA [CACACA_site5930]”, the “gcPBM binding intensity (ln)” value turned out to be 10.1. Then “AATTTAAATTAGAATTGTACTAGAAAAGGAATATAT [XGTACX_site6162]”, with 9.3; and “AATTATATAATCTTATAACATAATATAATAACATTT [CACACA_negctrl_site187]”, with 9.09. As to “ATAATGTTTCTTTCAACACACAAAAAATGAACACAT [CACACA_site1552]”, the “gcPBM binding intensity (ln)” value was found to be 9.47. Then “AAAAAAGAAAAAAGGACACACATAAATATACTCACG [CACACA_site2904]”, with 9.71; and “CATACATACGGACACACACACATATATATATATATA [CACACA_site5598]”, with 9.97; and “TATATAAGCGCATGCACACGCAAAGGTATATAAATA [CACACA_site622]”, with 9.29. As to “AAAAAAAAAAAATAGACCTCCTAAGCAAAAGAAAAA [GTGCAC_negctrl_site634]”, the “gcPBM binding intensity (ln)” value amounted to 9.38. The value for “TAAGTTTATTGAAATTGTACAAACATAAATGTAAAA [XGTACX_site162]” was 9.11. Regarding “TTATATTTTTTTTTTTCACACACATTTATATTGTAT [CACACA_site9025]”, the “gcPBM binding intensity (ln)” value was determined as 9.77. The value for “TATACTAAGAAGTATTTACACACCAACAAGGCGAAA [CACACA_site8963]” was 9.42; that for “TTATTTTCATATAGGTGTACATAAAAATATTCTTAT [XGTACX_site8861]” was 9.09; that for “AAATTAAGTATATATTGTACACATAATATGATTGTA [XGTACX_site3083]” was 9.22. For the sequence “ATGTTCATTATATGCACACATATATATAAATGTAAT [CACACA_site2908]”, the “gcPBM binding intensity (ln)” value was determined as 9.31. As to “TATCATAAAAAATATACACACAAAGGATATATATAT [CACACA_site1571]”, the “gcPBM binding intensity (ln)” value turned out to be 9.6.

Take “TTAATTAGAAATCATACACACATATAAATAAATATA [CACACA_site6225]”: the “gcPBM binding intensity (ln)” value worked out at 9.6.

For “TGTGCCTATAAATTAACACACAGAAATATATAGAGA [CACACA_site818]”, the “gcPBM binding intensity (ln)” value was 9.34. Then “TTATTCTGACAGAATTGTACTAATGTCTTTAAAAAA [XGTACX_site1256]”, with 8.72.

As for “TATTTGTTTGTTCGGGTGCTTACATATATTCTTATA [GTGCAC_site9972]”, the “gcPBM binding intensity (ln)” value is 9.65. Regarding “TGTTGTAAATTAAAGACATGCACGTGAGAAAATATA [TGCATGCA_site285]”, the “gcPBM binding intensity (ln)” value was 9.51. The value for “AATTATATACATAAGTGTACATAATATATAAACATA [XGTACX_site793]” was 9.12; that for “TTTTCAATTAATAATACACACATGTATTTATTATTA [CACACA_site5774]” was 9.38. As for “TTTTCTATGCTAAACACACTCATTGTTACAAGTTTT [CACACA_site5531]”, the “gcPBM binding intensity (ln)” value stood at 9.28. On to “TATATATATTTTATATGTACGTATGGAACAATATGA [XGTACX_site8167]”, for which the “gcPBM binding intensity (ln)” value was determined as 9.23. Take “TTATTTATTTTTTATACACACAATTATCATTTTAAG [CACACA_site22]”: the “gcPBM binding intensity (ln)” value is 9.45.

With “ATTATATATATGTGCACACAAAAGATATATATATAT [CACACA_site5205]”, the “gcPBM binding intensity (ln)” value is 9.68. The value for “AAATAATTTACTTAATGTACATATATATATATATAT [XGTACX_site8594]” was 9.34; that for “ATATTTATTTGTTAGTGTACATACATATATATATAT [XGTACX_site1347]” was 9.46. The value for “TTTTAATTTATTTATGCACACATATATAATTACACA [CACACA_site8126]” was 9.4; that for “AAAAATAAACAATATATAGTTATATATATATATATA [TGCATGCA_negctrl_site82]” was 9.18.

With “GAGAAATGGGGACACACACACATATTATATATATAT [CACACA_site4943]”, the “gcPBM binding intensity (ln)” value turned out to be 10. Then “AAGCACAAAAAATACACACACAAAAAATAAAAAAAG [CACACA_site1840]”, with 10.1; and “TATATGCATAATAACTGTACACAAATTGGGGTTGAT [XGTACX_site459]”, with 9.65; and “ATATAAATATATGTATGTACGCATGTATGTATCTAT [XGTACX_site3290]”, with 9.35. For “ATAATGAACAATATTATATATAAAATATAATTTATA [GTGCAC_negctrl_site564]”, the “gcPBM binding intensity (ln)” value stood at 9.08.
